Reference: the supplement of paper PMC6135742
Structures can show the parent of a compound that is named as a salt. ± gives the standard deviation of the averaged measurements. Over roughly 2,600 compounds, “total cell number (DAPI+ nuclei) relative to DMSO vehicle control” has its median near -1.4; the lowest 2% begin near -23. Some of the results follow.

test system: jimpy (Plp1 jimpy) mouse iPSC-derived oligodendrocyte progenitor cells; experiment: total cell number (DAPI+ nuclei) relative to DMSO vehicle control (SDs above negative control mean); higher = more surviving cells; conditions: 10 µM; 3 days

Structure (SMILES) | total cell number
CC(C)(C)NCC(O)c1ccc(O)c(CO)c1 (stereo unspecified) [Albuterol hemisulfate] | -0.752
COc1ccc2cc1Oc1ccc(cc1)C[C@H]1c3c(cc4c(c3Oc3cc5c(cc3OC)CCN(C)[C@@H]5C2)OCO4)CCN1C [Cepharanthine] | -14.3
O=C(O[C@@H]1C[C@@H]2C[C@H]3C[C@H](C1)N2CC3=O)c1c[nH]c2ccccc12 [Dolasetron mesylate hydrate] | -0.866
CC(C)(C)NC(=O)[C@@H]1CN(Cc2cccnc2)CCN1C[C@@H](O)C[C@@H](Cc1ccccc1)C(=O)N[C@H]1c2ccccc2C[C@H]1O [Indinavir sulfate salt hydrate] | -1.37
COc1ccc(COc2cc3oc(=O)c4cc(C(C)O)ccc4c3cc2OC)cc1 (stereo unspecified) [Palomid 529 (P529)] | -1.92
NC1=N[C@@]2(c3cc(NC(=O)c4ccc(F)cn4)ccc3F)COC[C@H]2CS1 | -2.27
COC(=O)Nc1nc2cc(C(=O)c3ccc(F)cc3)ccc2[nH]1 [Flubendazole] | -5.97
CC(=O)O[C@H]1Cc2ccccc2N(C(N)=O)c2ccccc21 | -1.91
COC1=CC(=O)C[C@@H](C)[C@]12Oc1c(Cl)c(OC)cc(OC)c1C2=O [Griseofulvin] | -2.76
CCC(=O)NCC[C@@H]1CCc2ccc3c(c21)CCO3 [Ramelteon] | -0.394
CN(CCCOc1ccc(Cc2ccccc2)cc1)CCC(=O)O | -0.315
CC(C)(C)c1cc(/C=C(\C#N)C(N)=S)cc(C(C)(C)C)c1O [Tyrphostin AG 879] | -0.603 ± 0.72
COc1ccc(-c2coc3cc(O)cc(O)c3c2=O)cc1 [Biochanin A] | -0.0458
O=S(=O)(NCCNC/C=C/c1ccc(Br)cc1)c1cccc2cnccc12 | -7.05
O[C@@H](COc1cccc2ncccc12)CN1CCN(C2c3ccccc3[C@@H]3[C@H](c4ccccc42)C3(F)F)CC1 (stereo partly specified) | -22.1
OCC(O)CN1CCN(c2ccccc2)CC1 (stereo unspecified) [Dropropizine] | 0.904
CN1Cc2sccc2C(c2ccc(O)c(O)c2)C1 (stereo unspecified) | -1.59
COc1ccccc1N1CCN(CCN2C(=O)CC3(CCCC3)CC2=O)CC1 [BMY 7378 dihydrochloride] | -2.22
COc1ccccc1N1CCN(CCN2C(=O)CC3(CCCC3)CC2=O)CC1 | -1.29
C[C@H](O)C(=O)C1=Nc2c(nc(N)[nH]c2=O)NC1 [Sepiapterin] | -0.448
CCCC(CCC)C(=O)O [Valproic acid sodium] | 0.176
CCCC(CCC)C(=O)O [Divalproex Sodium] | -0.0804
CCCC(CCC)C(=O)O [Valproic acid sodium salt (Sodium valproate)] | -0.34
CN(C)CCCC1(c2ccc(F)cc2)OCc2cc(C#N)ccc21 (stereo unspecified) [Citalopram hydrobromide] | -1.25
Nn1nnc2ccccc21 [1-Aminobenzotriazole] | -0.722
CN(C)[C@@H](CCOc1cccc2ccccc12)c1ccccc1 [Dapoxetine HCl] | -10.4

Structure (SMILES) | total cell number
CC(C)c1noc(N2CCC(COc3ccc(-c4ccc(S(C)(=O)=O)cc4)nc3)CC2)n1 | -2.21
O=C(NC1CCNCC1)c1n[nH]cc1NC(=O)c1c(Cl)cccc1Cl | -16.2
COc1ccccc1CNCCCCCCNCCCCCCCCNCCCCCCNCc1ccccc1OC [Methoctramine tetrahydrochloride] | -6.45
CC[C@H](Nc1ncnc2[nH]cnc12)c1nc2cccc(F)c2c(=O)n1-c1ccccc1 [CAL-101 (Idelalisib, GS-1101)] | -11.4
COc1cc2c[n+](C)c3c4cc5c(cc4ccc3c2cc1OC)OCO5 [Nitidine chloride] | -10.1
CC(=O)Nc1ccccc1 [Acetanilide] | -1.98
COC(=O)C[C@H](NC(=O)[C@H](C)NC(=O)[C@@H](NC(=O)OCc1ccccc1)C(C)C)C(=O)CF | -1.54
CSc1ccc2c(c1)C(N1CCN(C)CC1)Cc1ccccc1S2 (stereo unspecified) [Methiothepin mesylate] | -10.6
CC(C)(C)C(=O)Oc1ccc(S(=O)(=O)Nc2ccccc2C(=O)NCC(=O)O)cc1 [Sivelestat sodium salt hydrate] | 0.0346
CC(C(=O)O)c1ccc2c(c1)Cc1cccnc1O2 (stereo unspecified) [Pranoprofen] | 2.24
C[N+]1(C)[C@@H]2C[C@@H](OC(=O)C(O)(c3cccs3)c3cccs3)C[C@H]1[C@@H]1O[C@@H]12 [Tiotropium Bromide hydrate] | -2.07
COc1ccc(/C=C/c2nc(NCCCN(C)C)c3ccccc3n2)cc1 | -10.6
Cc1ccc(O)c(N=Nc2ccccc2)n1 | -1.95
CC(C)N(C[C@H]1O[C@@H](n2cnc3c(N)ncnc32)[C@H](O)[C@@H]1O)[C@H]1C[C@@H](CCc2nc3cc(C(C)(C)C)ccc3[nH]2)C1 | -3.08
COC(=O)C1=C(C)NC(C)=C(C(=O)OCCN2CCN(C(c3ccccc3)c3ccccc3)CC2)C1c1cccc([N+](=O)[O-])c1 (stereo unspecified) [Manidipine] | -13
COC(=O)C1=C(C)NC(C)=C(C(=O)OCCN2CCN(C(c3ccccc3)c3ccccc3)CC2)C1c1cccc([N+](=O)[O-])c1 (stereo unspecified) [Manidipine 2HCl] | -11.4
COC(c1ccccc1)(c1ccccc1)[C@H](Oc1nc(C)cc(C)n1)C(=O)O [Ambrisentan] | 0.746
COc1ccc([C@@H]2CC(=O)c3c(O)cc(O[C@@H]4O[C@H](CO[C@@H]5O[C@@H](C)[C@H](O)[C@@H](O)[C@H]5O)[C@@H](O)[C@H](O)[C@H]4O)cc3O2)cc1O [Hesperidin] | -0.925
CC(N)=NCCCC[C@H](N)C(=O)O [L-N6-(1-Iminoethyl)lysine hydrochloride] | -1.71
CC(C)(C(=O)O)c1ccc(C(O)CCCN2CCC(C(O)(c3ccccc3)c3ccccc3)CC2)cc1 (stereo unspecified) [Fexofenadine HCl] | -1.24
CC(C)(C(=O)O)c1ccc(C(O)CCCN2CCC(C(O)(c3ccccc3)c3ccccc3)CC2)cc1 (stereo unspecified) [Fexofenadine hydrochloride] | 0.444
O=c1cc(N2CCOCC2)oc2c(-c3cccc4c3sc3ccccc34)cccc12 | -11.4
CN(C)CCCN1c2ccccc2Sc2ccccc21 [Promazine hydrochloride] | -4.46
Cc1cc(C(C)(C)C)c(O)c(C)c1CC1=NCCN1 [Oxymetazoline hydrochloride] | -1.52
Cc1cc(C(C)(C)C)c(O)c(C)c1CC1=NCCN1 [Oxymetazoline HCl] | 1.07
CC(=O)O[C@]1(C(C)=O)CC[C@H]2[C@@H]3C[C@H](C)C4=CC(=O)C=C[C@]4(C)[C@@]3(F)[C@@H](O)C[C@@]21C [Fluorometholone Acetate] | 7.08

Structure (SMILES) | total cell number
O=C[C@H](O)[C@@H](O)[C@H](O)CO [Xylose] | -0.515
Cc1oncc1C(=O)Nc1ccc(C(F)(F)F)cc1 [Leflunomide] | 0.416 ± 0.91
O=C(O)c1cccnc1Nc1cccc(C(F)(F)F)c1 [Niflumic acid] | -0.659 ± 0.94
CC1CC(OC(=O)C(O)c2ccccc2)CC(C)(C)C1 (stereo unspecified) [Cyclandelate] | 0.293
CC(CCc1ccccc1)NCC(O)c1ccc(O)c(C(N)=O)c1 (stereo unspecified) [Labetalol hydrochloride] | -8.09
CCOC(=O)[C@H](CCc1ccccc1)N[C@@H](C)C(=O)N1Cc2ccccc2C[C@H]1C(=O)O [Quinapril HCl] | -1.89
Cc1cn(C2C=CC(CO)O2)c(=O)[nH]c1=O (stereo unspecified) [2',3'-didehydro-3'-deoxythymidine] | -1.17
Cc1cn([C@H]2O[C@@H](CO)[C@H](O)[C@H]2F)c(=O)[nH]c1=O [Clevudine] | -1.07
Cc1onc(-c2c(Cl)cccc2Cl)c1C(=O)N[C@@H]1C(=O)N2[C@@H]1SC(C)(C)[C@@H]2C(=O)O [Dicloxacillin Sodium] | -1.44
Cc1cc(NC(=O)Nc2ccc(N(C)C)cc2)c2cc(F)cc(F)c2n1 | 7.6
Cn1cc(-c2ccc3ncc(Cc4ccc5ncccc5c4)n3n2)cn1 | -5.21
CC1C(=O)OC2C(O)C34C5CC(C(C)(C)C)C36C(OC(=O)C6O)OC4(C(=O)O5)C12O (stereo unspecified) [Ginkgolide B] | 0.63
C[N+](C)(C)CCCCCC[N+](C)(C)C [Hexamethonium bromide] | -1.23
C[N+](C)(C)CCCCCC[N+](C)(C)C [Hexamethonium dichloride] | -0.141
CCCCCCCCc1ccc(-c2ccc(C(=O)O)cc2)cc1 | -1.51
CN(C)/N=N/c1[nH]cnc1C(N)=O [Dacarbazine] | 1.44
CCCCCC[C@@H]([C@@H](C)O)n1cnc2c(N)ncnc21 [erythro-9-(2-Hydroxy-3-nonyl)adenine hydrochloride] | 0.262
Nc1nc2c(ncn2[C@@H]2O[C@H](CO)[C@@H](O)[C@H]2O)c(=O)[nH]1 [Guanosine] | -0.603
CC1(C)S[C@@H]2[C@H](NC(=O)[C@H](NC(=O)N3CCNC3=O)c3ccccc3)C(=O)N2[C@H]1C(=O)O [Azlocillin sodium salt] | -0.73
Nc1nc2c(c(=O)[nH]1)C[C@@H](CCc1ccc(C(=O)N[C@@H](CCC(=O)O)C(=O)O)cc1)CN2 [Lometrexol hydrate] | -1.44
CC(C)c1ccc2oc3nc(N)c(C(=O)O)cc3c(=O)c2c1 [Amlexanox] | -1.83
O=C1[C@H](Cc2ccc(O)cc2)N2C(=O)CCN(C(=O)NCc3ccccc3)[C@H]2CN1Cc1cccc2ccccc12 | -7.61
CCn1c2ccccc2c2cc(Nc3ccnc(NCCCN4CCOCC4)n3)ccc21 | -16.4
COc1cccc2c1[C@@H]1CN(CCCCn3c(=O)[nH]c4c(sc5ncc(-c6ccccc6)nc54)c3=O)C[C@@H]1CO2 [Fiduxosin hydrochloride] | -6.17
